# Laboratory results as given in PubChem BioAssay AID686979 (National Center for Advancing Translational Sciences (NCATS), 2013).
# Values joined by “and” are separate entries in the source; they are usually repeats but may differ in a detail not shown here. Equal entries are not always repeated. Hit rate of the full screen: of about 420,000 compounds, about 50,000 (12%) were called active. This list was built around the results that the source calls inconclusive (neither active nor inactive); the mix of calls is not that of the screen. Calls come from the whole dose curve; as a rule, active = well fitted inhibition curve with a large enough effect; inconclusive = small, poorly fitted or top-dose-only effect; inactive = flat fitted curve, though single readings scatter. Potencies of inconclusive entries are left out as doubtful fits.
# Experiment: qHTS for Inhibitors of human tyrosyl-DNA phosphodiesterase 1 (TDP1): qHTS in cells in presence of CPT; note: nearly all actives have a fitted effect of over 55% in size
# Conditions: chicken DT40 Tdp1-/-;hTDP1 cells + 20 nM CPT, ATP luminescence, 48 h; activity change, negative = growth inhibition: at 46.2 µM (top of the series)
# Procedure, shortened: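 Chicken DT40 Tdp1-/- cells stably complemented with human TDP1 were seeded at 400 cells/well in medium containing 20 nM camptothecin, exposed to pin-transferred compounds, and grown at 37 °C for at least 48 hr. Viability was read as ATP luminescence.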
# % is set by controls: 0 for no effect and ±100 for the full control effect; potency is the fitted concentration of half-maximal effect; tags give direction and shape of the fitted curve.
Structure (SMILES),Potency,"activity change, negative = growth inhibition"
COc1ccc(CN2COc3ccc4c(-c5ccccc5)cc(=O)oc4c3C2)cc1OC,"inconclusive [inhibitor, partial curve]",–
Cc1ccc(-c2csc3ncnc(N4CCc5ccccc5C4)c23)cc1,"inconclusive [inhibitor, single point]",–
Cc1ccc(C)c(-c2nnc(NC(=O)CCS(=O)(=O)c3ccccc3)o2)c1,"inconclusive [inhibitor, single point]",–
O=C(CSCc1cnn(-c2ccccc2)c1-n1cccc1)NCc1cccnc1,"inconclusive [inhibitor, single point]",–
CCS(=O)(=O)N1N=C(c2ccccc2)CC1c1ccc2nccnc2c1 (stereo unspecified),"inconclusive [inhibitor, partial curve]",–
Cc1cc(C2(c3cc(C)c(NC(=O)CN4CCOCC4)c(C)c3)CCCCC2)cc(C)c1NC(=O)CN1CCOCC1,–,inconclusive: -35.3% [inhibitor]
O=C(c1cc(Cl)c(=O)n(Cc2ccc(Cl)cc2)c1)N1CCOCC1,inactive,–
COP(=O)(OC)c1nc(-c2cccc3ccccc23)oc1NCc1ccccc1,active: 16.4 µM,–
c1ccc2c3c(cc(N4CCOCC4)c2c1)OC1(N2CCOCC2)CCCCC1O3 (stereo unspecified),"inconclusive [inhibitor, partial curve, poor fit]",–
Cc1ccc(C2N=C(Nc3nc4ccccc4o3)NC3=C2C(=O)CC(C)(C)C3)cc1 (stereo unspecified),active: 7.08 µM,–
Cc1cccc(C2(c3cccc(C)c3)CC2C(=O)Nc2ccc([N+](=O)[O-])cc2O)c1 (stereo unspecified),active: 8.2 µM,–
Cc1ccccc1CN(C)C[C@H]1OCc2cnnn2CCCC(=O)N([C@@H](C)CO)C[C@@H]1C,inactive,–
CCN1/C(=C/C=C/c2sc3ccccc3[n+]2CC)Sc2ccccc21,active: 133 nM and active: 184 nM,–
O=C(NCCN1CCN(c2ccccc2)CC1)C1CCN(S(=O)(=O)c2cccc3nonc23)CC1,inactive,–
Cc1nc(Nc2ccc(S(=O)(=O)N3CCCC3)cc2)c2nnn(Cc3ccccc3)c2n1,inactive,–
COc1ccc(CNC(C)C(=O)Nc2ccc3ccccc3c2)cc1OC (stereo unspecified),"inconclusive [inhibitor, single point]",–
COc1ccccc1NC(=O)c1sc2ncn(Cc3ccc(C)cc3)c(=O)c2c1C,"inconclusive [inhibitor, single point]",–
COc1ccc([C@H]2/C=C\CN(S(=O)(=O)c3cccc4cccnc34)[C@@H](C)C(=O)N2Cc2ccc(F)cc2)cc1,active: 18.4 µM,–
O=C(NCc1ccccc1)c1cnc(N2CCCCC2)c2ccccc12,active: 23.1 µM,–
COc1cc(-c2c(NC(=O)c3ccco3)oc3ccc(Cl)cc3c2=O)cc(OC)c1OC,"inconclusive [inhibitor, single point]",–
COc1ccc(Cl)cc1NC(=O)CSC1=Nc2ccccc2C2=NC(CC(=O)NCc3cccs3)C(=O)N12 (stereo unspecified),"inconclusive [inhibitor, single point]",–
Cc1cc(C)n(Cc2ccc(NC(=O)c3nn(C)cc3[N+](=O)[O-])cc2)n1,inactive,–
CCc1ccc(-n2c(=O)c3cccnc3n2CC(=O)NCc2ccc(C)cc2)cc1,"inconclusive [inhibitor, single point]",–
O=S1(=O)N=C2CCCCCN2C(c2ccncc2)N1 (stereo unspecified),inactive,–

Structure (SMILES),Potency,"activity change, negative = growth inhibition"
Cc1ccc(-c2nnn(CC(=O)N(CC(=O)NC3CCCCC3)c3cnc4ccccc4c3)n2)o1,inactive,–
COc1ccccc1N1CCN(C(=O)CN2C(=O)c3cccc4cccc(c34)C2=O)CC1,active: 25.9 µM,–
CCN(CC(=O)Nc1ccc(NC(C)=O)cc1)C(=O)c1cn(-c2ccccc2)nc1-c1cccs1,inactive,–
COc1ccc(Nc2c(-c3ccccn3)nc3ccc(Cl)cn23)cc1,active: 11.6 µM,–
COc1ccccc1/C=C/C(=O)Nc1ccc(S(=O)(=O)Nc2cc(C)nc(C)n2)cc1,inactive,–
O=c1c2ccccc2nc2c3ccccc3c(NCc3ccccn3)nn12,"inconclusive [inhibitor, single point]",–
CCN(CC)c1nc(OCCNC(=O)Nc2ccccc2)nc(N(CC)CC)n1,"inconclusive [inhibitor, single point]",–
COC(=O)c1c(C)nn(-c2ccc(F)cc2)c1-n1cccc1,"inconclusive [inhibitor, partial curve]",–
COc1ccc(CCN2C(=O)CCC2(C)c2nnnn2-c2c(C)cccc2C)cc1OC (stereo unspecified),inactive,–
COc1ccc(C(=O)NC(=S)NNC(=O)c2ccc(C)cc2)cc1,"inconclusive [inhibitor, single point]",–
Cc1nn(C)c(C(=O)NC(=S)Nc2ccccc2O)c1Cl,"inconclusive [inhibitor, partial curve]",–
CC(=O)NCCNC(=O)C1(C)Cc2c(-c3ccc(NC(C)=O)cc3)ccnc2O1 (stereo unspecified),inactive,–
Cc1ccc(NC(=O)CSc2nc(-c3ccccc3Cl)nc3cc(=O)[nH]n23)c(C)c1,"inconclusive [inhibitor, partial curve]",–
Cc1ccc(C(c2sc3nc(-c4ccco4)nn3c2O)N2CCC3(CC2)OCCO3)cc1 (stereo unspecified),inactive,–
COC(=O)c1ccccc1CON1C(=O)C(C)(C)N(OCc2ccccc2C(=O)OC)C(=O)C1(C)C,"inconclusive [inhibitor, partial curve]",–
CCOc1ccc(C(=S)N2CCCC2)c(OCC)c1,active: 20.6 µM,–
CC1CCN(c2c([N+](=O)[O-])c(=O)n(-c3ccccc3)c3ccccc23)CC1,"inconclusive [inhibitor, single point]",–
CC(=O)Nc1ccc(NC(=O)C(Cc2ccccc2)NC(=O)C2CCC(C)CC2)cc1 (stereo unspecified),inactive,–
CC(=O)c1ccc(-c2nnc(CCC(=O)N(C)Cc3cccc4cnccc34)o2)s1,inactive,–
O=C(Nc1ccccc1O)c1csc2c1CCCC2,"inconclusive [inhibitor, partial curve]",–
CCN(CC)S(=O)(=O)c1cc(NC(=O)CN2CCN(c3ccccn3)CC2)ccc1C,active: 13 µM,–
Ic1ccc(Nc2nc(NCCN3CCOCC3)nc(N3CCOCC3)n2)cc1,active: 5.01 µM,–
COc1cccc(Cn2nnc(C(=O)Nc3cc(C)ccc3OC)c2N)c1,active: 25.9 µM,–
C=CCNC(=S)Nc1nc2c(cc1C(=O)OCC)CCCC2,"inconclusive [inhibitor, partial curve]",–

Structure (SMILES),Potency,"activity change, negative = growth inhibition"
O=C(CCCn1c(=S)[nH]c2ccc(Br)cc2c1=O)N1CCN(c2ccccn2)CC1,"inconclusive [inhibitor, single point]",–
COc1cccc(N2CCN(S(=O)(=O)c3ccc(-c4ccno4)cc3OC)CC2)c1,"inconclusive [inhibitor, single point]",–
CCN(CC)CCNc1nc(-c2ccc(OC(F)F)cc2)c(C)s1,"inconclusive [inhibitor, single point]",–
COc1ccc(C(=O)C2CCCN(C(=O)c3cccc(Cl)c3F)C2)cc1OC (stereo unspecified),"inconclusive [inhibitor, single point]",–
O=C1N=c2ccccc2=C1c1c(O)[nH]c2c(C(F)(F)F)cccc12,active: 20.6 µM,–
N#Cc1c2c(c(Cl)n3c1nc1ccccc13)CCCC2,active: 0.708 µM,–
Fc1ccccc1Cc1noc(CN2CCC(OCc3cccnc3)CC2)n1,"inconclusive [inhibitor, single point]",–
CCOc1ccccc1C(=O)NC1CC2CCCC(C1)N2Cc1nnnn1Cc1ccco1 (stereo unspecified),"inconclusive [inhibitor, single point]",–
CCOC(=O)C1Nc2ccc(C)cc2C2C=CCC12 (stereo unspecified),"inconclusive [inhibitor, single point]",–
COCCn1c(-c2ccccc2)cnc1SCC(=O)Nc1cccc2ccccc12,"inconclusive [inhibitor, partial curve]",–
CO/N=C(\C(=O)N[C@@H]1C(=O)N2C(C(=O)O)=C(COC(N)=O)CS[C@H]12)c1ccco1,inactive,–
O=C(NCC(O)CO)c1c(I)c(C(=O)NCC(O)CO)c(I)c(N(CCO)C(=O)CO)c1I (stereo unspecified),inactive,–
O=C(NC(=S)Nc1ccc2oc(-c3cccnc3)nc2c1)c1cccc(Cl)c1,active: 16.4 µM,–
COc1ccc(NC(=O)c2ccco2)cc1NC(=O)COc1ccc(Cl)cc1C,active: 10.3 µM,–
NC(=S)N/N=C/c1ccc(-c2cc(Cl)c(Cl)cc2Cl)o1,active: 3.66 µM,–
CC[C@@H](C)[C@@H]1CN([C@@H](CN2CCC[C@H]2CN2C(N)=NC[C@H]2CC(C)C)C(C)C)C(=N)N1CCc1ccc(Cl)c(Cl)c1,"inconclusive [inhibitor, single point]",–
COCc1cc(CNC(=O)C2CCC(=O)N(Cc3ccccc3F)C2)[nH]n1 (stereo unspecified),inactive,–
COc1cccc(N2CCN(C(=O)c3ccc(NC(=O)c4nsc5ccccc45)cc3)CC2)c1,"inconclusive [inhibitor, single point]",–
Cn1c2c(c3ccccc31)CCN1CCC[C@]21c1ccccc1,"inconclusive [inhibitor, single point]",–
O=C(c1ccc2c(c1)CCC2)N1CCN(Cc2ccccc2)CC1,"inconclusive [inhibitor, single point]",–
ClCc1csc(-c2ccccc2Cl)n1,active: 11.6 µM,–
CCc1ccc(OCC(=O)NC(NC(=S)Nc2ccccc2C)C(Cl)(Cl)Cl)cc1 (stereo unspecified),"inconclusive [inhibitor, single point]",–
CC(=O)c1ccc(NC(=O)CCc2nc3sc4c(c3c(=O)[nH]2)CCCC4)cc1,–,inconclusive: -32.9% [inhibitor]
